# About 2,200 (0.71%) of roughly 310,000 compounds showed an effect of 50% or more. Effects have a minus sign here. The list shows a part of the results.
# Target: human ether-à-go-go-related gene (hERG) potassium channel (human, UniProt Q12809)
# Assay: primary screen, population patch clamp on CHO cells stably expressing hERG
# human ether-à-go-go-related gene (hERG) potassium channel, sequence (Q12809 whole entry, looked up): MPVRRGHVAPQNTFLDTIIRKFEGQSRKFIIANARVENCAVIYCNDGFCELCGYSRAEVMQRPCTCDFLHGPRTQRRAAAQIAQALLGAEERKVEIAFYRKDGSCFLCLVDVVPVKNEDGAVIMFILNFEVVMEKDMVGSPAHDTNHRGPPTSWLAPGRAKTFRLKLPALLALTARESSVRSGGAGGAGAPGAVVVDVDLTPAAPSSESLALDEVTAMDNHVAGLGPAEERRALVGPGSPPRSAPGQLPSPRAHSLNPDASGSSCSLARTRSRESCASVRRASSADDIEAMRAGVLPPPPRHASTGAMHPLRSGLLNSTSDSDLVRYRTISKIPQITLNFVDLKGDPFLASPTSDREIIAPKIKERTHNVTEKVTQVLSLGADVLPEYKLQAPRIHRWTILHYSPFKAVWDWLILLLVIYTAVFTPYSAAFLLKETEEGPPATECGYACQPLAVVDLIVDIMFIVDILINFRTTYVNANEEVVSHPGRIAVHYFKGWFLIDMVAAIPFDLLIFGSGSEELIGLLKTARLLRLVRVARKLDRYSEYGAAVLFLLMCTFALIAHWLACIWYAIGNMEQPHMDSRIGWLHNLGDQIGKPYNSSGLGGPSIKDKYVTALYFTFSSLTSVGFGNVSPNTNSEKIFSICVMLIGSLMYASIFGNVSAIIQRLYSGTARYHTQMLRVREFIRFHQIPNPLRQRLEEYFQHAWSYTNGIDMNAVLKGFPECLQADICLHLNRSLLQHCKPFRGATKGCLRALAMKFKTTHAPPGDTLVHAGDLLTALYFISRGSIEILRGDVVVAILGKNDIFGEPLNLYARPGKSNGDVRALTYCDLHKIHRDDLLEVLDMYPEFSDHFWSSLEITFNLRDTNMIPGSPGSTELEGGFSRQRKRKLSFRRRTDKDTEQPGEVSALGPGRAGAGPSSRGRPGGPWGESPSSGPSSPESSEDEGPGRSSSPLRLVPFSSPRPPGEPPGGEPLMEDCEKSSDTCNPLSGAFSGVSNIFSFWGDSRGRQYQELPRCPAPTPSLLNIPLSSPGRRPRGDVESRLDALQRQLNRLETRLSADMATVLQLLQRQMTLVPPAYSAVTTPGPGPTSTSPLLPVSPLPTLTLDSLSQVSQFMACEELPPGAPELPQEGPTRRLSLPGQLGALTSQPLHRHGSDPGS
row,Compound,"hERG current change (%, negative = inhibition) at 1uM [%]"
1,O=C(NCc1ccc2c(c1)OCO2)c1nnc(Cc2ccc(F)cc2)o1,4.52
2,O=C1CNC(=S)N1C1CCCCCC1,21.6
3,C=CCCN(C(C(=O)OC)C(C)C)S(=O)(=O)c1ccccc1Br (stereo not shown),9.39
4,CCC(=O)Nc1ccccc1-c1nnn(CC(=O)N2c3ccccc3CC2C)n1 (stereo not shown),8.66
5,Cc1cc(N2CCCC2=O)ccc1S(=O)(=O)NCCOc1ccccc1,12.6
6,Cc1ccc(S(=O)(=O)N(C)c2ccc(N)cc2)cc1,7.13
7,CCC(=O)Nc1nc(-c2cc([N+](=O)[O-])cs2)cs1,11.4
8,Cc1ccc2[nH]c(=O)c(-c3nc4ccccn4c3NCc3ccco3)cc2c1,-4.3
9,COc1ccc(CNC(=O)c2csnn2)cc1,-0.56
10,Cc1ccc(CCNC(=O)C2CCC(=O)N2Cc2ccc(F)cc2)cc1 (stereo not shown),8.09
11,OC1(c2cccc(C(F)(F)F)c2)CCN(c2ccc(-c3ccccc3)nn2)CC1,11
12,COc1ccc(/C=C(/NC(=O)c2ccccc2)C(=O)N/N=C/c2cccs2)cc1OC,16.2
13,O=C(Nn1nnnc1Nc1ccccc1)C12CC3CC(CC(C3)C1)C2,10.1
14,O=C1CSC(c2ccc(Cl)cc2Cl)N1c1ccccn1 (stereo not shown),20.6
15,CCN(CC)S(=O)(=O)c1cccc(NC(=O)c2cc(-c3cccs3)nn2-c2ccccc2)c1,11.5
16,COc1ccccc1-n1cnnc1SCC(=O)Nc1cccnc1Cl,-5.7
17,CC(C)n1c(N2CCN(C(=O)Nc3ccccc3)CC2)nc2ccccc21,5.63
18,O=C(c1ccccn1)c1ncc(C(F)(F)F)cc1Cl,17
19,COc1ccc(-c2c(C)nc3c(-c4ccc(F)cc4)cnn3c2N)cc1,7.77
20,CCCn1c(=NC(=O)CS(=O)(=O)c2ccccc2)sc2cc(S(C)(=O)=O)ccc21,12.9
21,CC(=O)Nc1cccc(-c2nc3ccc(NC(C)=O)cc3s2)c1,-6.71
22,CCNC(=O)COC(=O)CCNC(=O)c1ccc(Cl)cc1,7.56
23,COc1ccc(C(=O)c2cn[nH]c2-c2cc(Cl)ccc2O)cc1,-0.311

row,Compound,"hERG current change (%, negative = inhibition) at 1uM [%]"
1,CS(=O)(=O)N1CCN=C1SCc1ccc(F)cc1,13.9
2,O=S(=O)(Nc1nc2ccccc2nc1Nc1ccc2c(c1)OCO2)c1ccccc1,15.6
3,CN(C)CCCO/N=C(\c1ccccc1)c1ccncc1.O=C([O-])C(=O)[O-],7.01
4,O=C(CCc1nnc(CCCCc2ccccc2)o1)N1CCN(CCO)CC1,7.79
5,CC(=O)Nc1ccc(NC(=O)[C@H](C)NC(=O)c2ccco2)cc1,22.8
6,O=c1[nH]c(CSc2nnc(COc3ccccc3)n2-c2ccccc2)nc2ccccc12,16.4
7,CCc1ccccc1NC(=O)/C(C#N)=C/c1ccc(Sc2ccccc2)o1,4.57
8,CCOC(=O)CC(=O)CSc1ncnc2c1nnn2-c1ccc(F)cc1,17
9,COc1ccc(CNC(=O)CSc2cc(=O)n(C)c3ccccc23)cc1,8.24
10,COc1ccc(NC(=O)CC2Nc3cc(C)c(C)cc3NC2=O)c([N+](=O)[O-])c1 (stereo not shown),13.2
11,O=C(Nc1ccc(Cl)cc1)C1C2CCCCC21 (stereo not shown),15
12,Cc1cccc(CCNC(=O)CCNS(=O)(=O)c2cc(Br)cnc2N)c1,9.25
13,Cc1ccc(CC(=O)Nc2ccc(C(=O)N3CCCCC3)cc2)cc1,15.3
14,COc1ccc(NC(=O)N2CCC(NC(=O)c3ccco3)CC2)cc1,7.08
15,CC(OC(=O)c1nsc(Cl)c1Cl)C(=O)NC1CCCCC1 (stereo not shown),16.4
16,Cl.NCC(O)(c1ccc(Cl)cc1)c1ccc(Cl)cc1,11.5
17,COC(=O)C1CCC(=S)N1C(=O)c1ccccc1 (stereo not shown),14.2
18,COc1ccc(NCc2ccc([N+](=O)[O-])s2)cc1,4.56
19,O=C(CNC(=O)c1ccc(Br)o1)NCc1ccc(Cl)cc1,12.5
20,CC(C(=O)N1CCCCCC1)N(c1ccc(Cl)cc1)S(C)(=O)=O (stereo not shown),15
21,Cc1nc(S/C(=C/c2ccc(OCc3ccc(C(=O)O)cc3)cc2)C(=O)O)n[nH]1,12.1
22,O=C(N/N=C/c1c[nH]c2ccccc12)c1cc(Br)ccc1O,11.4
23,Cc1nc(/N=C(\N)NC(=O)NC2CCCCC2)nc2ccccc12,7.41

row,Compound,"hERG current change (%, negative = inhibition) at 1uM [%]"
1,CC1CCN(CCC(=O)Nc2ccc(Br)cc2)CC1.Cl,-7.07
2,COc1cccc(CN2C(=O)CCC2(C)C(=O)NC2CCCC2)c1 (stereo not shown),6.05
3,COc1ccc(C(=O)c2ccc(CC(=O)O)s2)cc1,9.58
4,CC(Oc1ccc(Cl)cc1)C(=O)Nc1ccccc1C(=O)N1CCOCC1 (stereo not shown),-1.27
5,NC(=O)C1CCCN(C(=O)NC2CCCCC2)C1 (stereo not shown),0.0848
6,COCCn1c(-c2ccco2)csc1=Nc1cccnc1.Cl,-2.68
7,COc1ccc2cc(C(c3nnnn3C3CCCC3)N3CCCCCC3)c3nnnn3c2c1 (stereo not shown),17.5
8,COc1ccc(Cl)cc1NC(=O)C1CC(=O)N(c2ccc(F)cc2)C1 (stereo not shown),1.08
9,Cc1ccc(-c2nnn(CC(=O)N(c3ccccc3F)C(C(=O)NC3CCCC3)c3ccco3)n2)o1 (stereo not shown),2.67
10,CC(NC(=O)c1cccc(F)c1)C(c1cccs1)N1CCN(C)CC1 (stereo not shown),11.8
11,CCOC(=O)CSc1nnc(COc2cccc(C)c2)o1,10.6
12,Nc1ccc(C(=O)N/N=C\C=C\c2cccc([N+](=O)[O-])c2)cc1,9.17
13,Cc1nc([N+](=O)[O-])c(C(=O)OCc2ccccc2Br)n1C,1.8
14,CN(C)c1ccc(C(=S)N2CCNCC2)cc1,12.8
15,Cc1ccc(C(=O)C2=C(O)C(=O)N(Cc3ccccc3)C2c2cccnc2)o1 (stereo not shown),10.2
16,O=C(Nc1ccc2c(c1)CCC2)Nc1ccccc1Cl,15.6
17,CSCC[C@H](NC(=O)N1CCn2c1nc1ccccc12)C(=O)NC1CC1,12.7
18,CCOC(=O)N1CCC(NC(=O)Cn2nc(Cc3ccncc3)c3ccccc3c2=O)CC1,17.4
19,COCc1nc2ccccc2n1Cc1ccc(Br)cc1,3.34
20,COc1ccccc1OCCCc1c(C)n[nH]c1C,1.99
21,COC(=O)c1cc(OC)c(OC)cc1NC(=O)CCC1CCCC1,11.9
22,COC(=O)C1=C(N)OC2=C(C(=O)CCC2)C1c1cccnc1 (stereo not shown),6.75
23,CC(=O)Nc1cc(-c2nn(CC(=O)N3CCCCC3)c(=O)c3ccccc23)ccc1N1CCOCC1,6.3

row,Compound,"hERG current change (%, negative = inhibition) at 1uM [%]"
1,O=C(N/N=C/c1cc(Br)ccc1O)Nc1ccccc1,18.7
2,Cc1ccc([N+](=O)[O-])cc1S(=O)(=O)NCCc1c(C)[nH]c2c(C)cccc12,8.49
3,Cc1ncc([N+](=O)[O-])n1CC(=O)Nc1ccc(OC(F)(F)Cl)cc1,19.9
4,CC(=O)N(Cc1ccc(F)cc1)c1cccc(C)c1C,13
5,CCCOc1ccc(C(=O)NCC(c2ccco2)N(C)C)cc1 (stereo not shown),-3.89
6,CCOc1cc(CNCc2ccncc2)cc(Br)c1OCc1ccc(F)cc1.Cl,4.11
7,CSc1nc(-c2ccccc2)nc(N2CCCC2)c1C(C)=O,-4.89
8,CCOC(=O)c1c(C)[nH]c(C(=O)CSc2nccc(C)n2)c1C,17.7
9,O=C(CN1CC[n+]2c(-c3ccccc3)csc21)c1ccc(Br)cc1.[Br-],5.16
10,CCCCN1C(=O)c2ccccc2C1C(=O)NC1CCCC1 (stereo not shown),8.85
11,CNC(=O)NC(=O)CSc1nc2cc(C(=O)OC)ccc2c(=O)n1-c1ccccc1,6.33
12,O=C(NNS(=O)(=O)c1ccc(Br)cc1)c1sccc1-n1cccc1,13.8
13,O=C(NNS(=O)(=O)c1ccc2ccccc2c1)c1cc(-c2ccccn2)nc2ccccc12,15.8
14,O=C(Nc1nnc(C2CCCCC2)s1)c1ccc(Br)s1,-5.3
15,CCNC(=O)COc1cc(C)c(Br)c(C)c1,9.75
16,CCC1(CC)Cc2ccccc2-c2nc(CN(C)C)[nH]c(=O)c21,15.8
17,CC(NC(=O)/C(C#N)=C/c1cn[nH]c1-c1ccccc1)c1ccccc1 (stereo not shown),9.07
18,CN(C)/C=C(\C#N)C(=O)Nc1ccc(O)cc1F,9.47
19,COc1ccc(-c2csc(N(CCCN(C)C)C(=O)c3ccccc3C)n2)cc1.Cl,-2.13
20,O=C(CSc1nc(-c2ccccc2)cs1)NC(=O)NCc1ccco1,7.04
21,CCC(CC)C(=O)c1c[nH]c(C(=O)NCc2ccc(F)cc2)c1,5.71
22,COc1ccc2ccc(O)c(CN(C)CC(=O)Nc3ccccc3C(F)(F)F)c2c1,6.43
